In all, about 50,000 compounds went through this assay and about 800 (1.6%) showed an effect of 50% or more. Some of the results follow.
Molecular target: Bcl-2-like protein 10 (Homo sapiens) (UniProt Q9HD36)
Test: TR3 peptide-Bcl-B binding displacers, biochemical primary FP assay, phenotype converters (AID 1240);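 note: 0% = Bcl-B with tracer peptide and DMSO and 100% = tracer peptide lacking Bcl-B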
Details: GST-Bcl-B / FITC-TR3 peptide fluorescence polarization; stronger effect = higher value; compound at 3.75 mg/L

Sequence of UniProt Q9HD36 (Q9HD36 whole entry, looked up): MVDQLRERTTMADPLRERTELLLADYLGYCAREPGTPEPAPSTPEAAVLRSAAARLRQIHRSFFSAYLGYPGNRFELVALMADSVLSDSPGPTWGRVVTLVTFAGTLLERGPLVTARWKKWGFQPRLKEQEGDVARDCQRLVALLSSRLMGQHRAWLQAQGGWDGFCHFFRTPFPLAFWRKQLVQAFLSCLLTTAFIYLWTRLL

Q: How did the displacement turn out when S=c1[nH]nc(-c2cccnc2)n1-c1ccccc1 was run?
A: The displacement was 0.1%.

Q: For OC(COc1ccc(Cl)cc1)CN1CCCCC1 (centres undefined), which displacement is on record?
A: The displacement was 3.9%.

Q: Which displacement does the source give for Cc1ccccc1CN1CCN(Cc2ccncc2)CC1 here?
A: Its displacement is -2.7%.

Q: How did the displacement turn out when O=C(Nc1ccc2nn(-c3ccccc3)nc2c1)c1ccc(I)cc1 was run?
A: The displacement was 13.1%.

Q: How did the displacement turn out when Cc1cc(C)c(S(=O)(=O)Nc2cc(Br)c3oc4c(c3c2)C(=O)CCC4)c(C)c1 was run?
A: The displacement was 2.6%.

Q: Cc1cccc(-c2noc(-c3ccc(Cl)cc3Cl)n2)c1 was tested. Which displacement did it give?
A: Its displacement is 1.1%.

Q: With COc1ccc(S(=O)(=O)N2CCN(c3ccccc3)CC2)cc1[N+](=O)[O-] as the molecule, how does the displacement read?
A: Its displacement is -6.6%.

Q: With COC(=O)C1=C(C)NC(=O)/C1=C\c1cccc(OC)c1 as the molecule, how does the displacement read?
A: The displacement was 7.8%.

Q: Which displacement does the source give for O=C1c2ccccc2C(=O)N1N1C(=O)c2cccc([N+](=O)[O-])c2C1=O here?
A: Its displacement is 15.5%.

Q: For CC(C)(C)C(=O)/C=C(/O)C(=O)NCc1ccccc1, which displacement is on record?
A: The displacement was 2%.

Q: Cc1ccc(C(=O)Nc2c(C)cc(C)cc2C)cc1 was tested. Which displacement did it give?
A: Its displacement is 9.2%.

Q: O=C1C=CC(=O)N1c1ccc(SC(F)F)cc1 was tested. Which displacement did it give?
A: The displacement was 7.6%.

Q: Which displacement does the source give for CN(C)C(=O)c1ccccc1NC(=O)c1ccccc1Cl here?
A: Its displacement is 3%.

Q: With O=c1[nH]cc(Cc2ccc(O)cc2)c(=O)[nH]1 as the molecule, how does the displacement read?
A: Its displacement is -7.1%.

Q: For COc1ccc(CCNc2cc(N3CCN(S(=O)(=O)c4ccccc4)CC3)ccc2[N+](=O)[O-])cc1OC, which displacement is on record?
A: Its displacement is 7.5%.

Q: CCN1C(=O)/C(=C\c2ccccc2Sc2ccc(Cl)cc2)SC1=S was tested. Which displacement did it give?
A: Its displacement is -5.5%.

Q: Which displacement does the source give for Cc1cc(NC(=O)CSc2nnc3c4ccccc4n(C(C)C)c3n2)no1 here?
A: The displacement was 11.1%.

Q: With O=C(Cc1c2ccccc2nc2ccccc12)c1ccccc1 as the molecule, how does the displacement read?
A: Its displacement is 11.6%.

Q: Which displacement does the source give for O=C1N/C(=N/N=C/c2ccccc2)SC1Cc1ccc(Cl)cc1Cl (centres undefined) here?
A: Its displacement is 1.3%.

Q: Which displacement does the source give for N#Cc1c(-c2ccc(Cl)cc2)cc(C2CC2)nc1SCC(N)=O here?
A: Its displacement is 28.9%.

Q: How did the displacement turn out when COc1ccc2c(c1)OCC/C2=N/OC(=O)c1ccc(Cl)cc1 was run?
A: Its displacement is -9.7%.

Q: COc1cccc(C(=O)Nc2ccc3oc(-c4cccc(Br)c4)nc3c2)c1 was tested. Which displacement did it give?
A: Its displacement is 12.1%.

Q: With Cc1ccc(OCC(=O)Nc2ccc(Nc3ccccc3)cc2)c(Br)c1 as the molecule, how does the displacement read?
A: The displacement was 26%.

Q: CCCC1=NN2C(=N)/C(=C/c3ccc(-c4ccc(C(=O)OCC)cc4)o3)C(=O)N=C2S1 was tested. Which displacement did it give?
A: The displacement was 164%.

Q: Cc1ccc(C(=O)Nc2c(C(=O)N3CCC(C(N)=O)CC3)cnn2-c2ccccc2)cc1 was tested. Which displacement did it give?
A: The displacement was 0.9%.

Q: With O=C1/C(=C/c2ccccc2)S/C(=N/N=C/c2ccccc2)N1c1ccc(O)cc1 as the molecule, how does the displacement read?
A: Its displacement is 11.8%.

Q: CC(CNC(=O)c1ccc(F)cc1)CN(C)C (centres undefined) was tested. Which displacement did it give?
A: Its displacement is -3.5%.

Q: For O=C(O)c1cc2nc(-c3ccccc3)cc(-c3ccccc3)n2n1, which displacement is on record?
A: Its displacement is -7.1%.

Q: Which displacement does the source give for CCOC(=O)C1CCN(C(=O)c2cc3c(C)nn(-c4ccccc4)c3s2)CC1 here?
A: The displacement was -13.9%.

Q: COc1cc2nc(-c3ccc(Oc4cccc(-c5nc6cc(OC)c(OC)cc6c(=O)o5)c4)cc3)oc(=O)c2cc1OC was tested. Which displacement did it give?
A: Its displacement is 9.6%.

Q: Which displacement does the source give for O=C(CC(Nc1ccc2ncccc2c1)c1ccccc1)c1ccccc1 (centres undefined) here?
A: Its displacement is 1.1%.

Q: Which displacement does the source give for COc1cc2c(cc1NCc1cccc([N+](=O)[O-])c1)oc1ccccc12 here?
A: Its displacement is -6.6%.

Q: With CCN1/C(=C2/OC(=S)N(C)C2=O)C=Cc2cc(C)ccc21 as the molecule, how does the displacement read?
A: The displacement was -1.6%.

Q: How did the displacement turn out when O=C1NC(=S)N(c2ccc(Cl)c(Cl)c2)C(=O)/C1=C/c1cccs1 was run?
A: The displacement was -1.1%.

Q: For COc1cc(NC(=O)CC(c2ccccc2)c2ccccc2)c(OC)cc1Cl, which displacement is on record?
A: Its displacement is 7.4%.

Q: Which displacement does the source give for COc1cc(OC)c(C2SCCN2S(=O)(=O)c2ccc3ccccc3c2)cc1OC (centres undefined) here?
A: The displacement was 4.2%.

Q: CCCN1C(=O)c2ccccc2NC1c1ccc(Cl)c(Cl)c1 (centres undefined) was tested. Which displacement did it give?
A: Its displacement is -1.1%.

Q: How did the displacement turn out when O=C(O)C(Cc1c[nH]c2ccccc12)NS(=O)(=O)c1ccccc1[N+](=O)[O-] (centres undefined) was run?
A: Its displacement is 12.2%.

Q: Which displacement does the source give for CC(=O)c1ccc(OC(C)C)c(CSc2nc(O)cc(=O)[nH]2)c1 here?
A: Its displacement is -3.9%.

Q: CC1(C)CC(NC(=O)C(=O)Nc2ccc(Cl)cc2)CC(C)(C)N1 was tested. Which displacement did it give?
A: Its displacement is 1%.

Q: How did the displacement turn out when O=[N+]([O-])c1cccc(S(=O)(=O)NCc2ccccc2Cl)c1 was run?
A: The displacement was 7.9%.

Q: How did the displacement turn out when CC(=O)NC12CC3CCC(CC(C3)C1)C2 was run?
A: Its displacement is 10.9%.

Q: NC(=S)NN=C1c2cc(S(=O)(=O)NCc3ccco3)ccc2-c2ccc(S(=O)(=O)NCc3ccco3)cc21 was tested. Which displacement did it give?
A: The displacement was -11.2%.

Q: Which displacement does the source give for CCCCNC(=O)/C(=C/c1ccccc1)NC(=O)c1ccc(OC)cc1 here?
A: The displacement was 10.3%.

Q: For C/C(=N\Nc1nc(C)cc(C)n1)c1ccccc1O, which displacement is on record?
A: The displacement was 0.1%.

Q: For CCOC(=O)c1c(CN(CCO)CCO)n(C)c2c1cc(OC(C)=O)c1c2c(-c2ccccc2)nn1-c1ccccc1, which displacement is on record?
A: Its displacement is 10.8%.

Q: For CC1CCc2c(sc(NC(=O)C(C(C)C)N3C(=O)c4ccccc4C3=O)c2C(N)=O)C1 (centres undefined), which displacement is on record?
A: The displacement was -11.9%.

Q: How did the displacement turn out when CCOC(=O)c1c[nH]c2c(Cl)ccc(Cl)c2c1=O was run?
A: Its displacement is -2.4%.

Q: Which displacement does the source give for O=C(/C=C/c1cc2c(cc1[N+](=O)[O-])OCCO2)c1c(-c2ccccc2)c2cc(Cl)ccc2[nH]c1=O here?
A: Its displacement is 31.3%.

Q: Which displacement does the source give for O=C(Nc1ccc(F)cc1)C1C(c2ccccc2)C1(Cl)Cl (centres undefined) here?
A: Its displacement is 1.9%.

Q: How did the displacement turn out when Cc1cc(C)c(NC(=O)C2CCCN2Cc2ccccc2)c(C)c1 (centres undefined) was run?
A: Its displacement is 0.7%.

Q: COc1ccccc1Nc1nc(C)c([N+](=O)[O-])c(Nc2ccccc2)n1 was tested. Which displacement did it give?
A: The displacement was -5.3%.

Q: COc1ccc(C(=O)N2CCN(Cc3ccc(C)cc3)CC2)cc1OC was tested. Which displacement did it give?
A: The displacement was -21.7%.

Q: Which displacement does the source give for COc1cccc(/C=C(\C#N)c2nc(-c3ccc(Br)cc3)cs2)c1 here?
A: The displacement was -7.3%.

Q: With Cc1ccc(C2Nc3cccc4cccc(c34)N2)cc1 as the molecule, how does the displacement read?
A: The displacement was 15.4%.

Q: Which displacement does the source give for CCOc1ccccc1NC(=O)c1ccc(N(C)S(=O)(=O)c2ccccc2)cc1 here?
A: Its displacement is 6.5%.

Q: With Cc1nc2c(CN(C)C)c(O)ccc2[nH]1 as the molecule, how does the displacement read?
A: Its displacement is -9.7%.

Q: COc1ccc(C2(CNC(=O)CC#N)CCCC2)cc1OC was tested. Which displacement did it give?
A: The displacement was 7.8%.

Q: For COc1cccc(C(=O)N2CCN(C(=O)c3cccs3)CC2)c1, which displacement is on record?
A: Its displacement is -2.6%.

Q: Cc1ccccc1C(=O)Nc1cccc(NC(=O)c2ccc(Cl)c([N+](=O)[O-])c2)c1 was tested. Which displacement did it give?
A: Its displacement is 8%.

Q: For COc1ccc(NC(=O)c2ccccc2Cl)cc1OC, which displacement is on record?
A: The displacement was -8%.

Q: For COc1cc(OC)c(NC(=O)c2cc(C(F)(F)F)cc(C(F)(F)F)c2)cc1Cl, which displacement is on record?
A: Its displacement is -11.9%.

Q: C=CCOc1c(I)cc(/C=C2/C(=O)NC(=O)N(c3ccc(OC)cc3)C2=O)cc1OC was tested. Which displacement did it give?
A: The displacement was 12.6%.

Q: COc1ccc(CN=CC2=C(O)CNC2=O)cc1 was tested. Which displacement did it give?
A: Its displacement is 10.9%.

Q: Which displacement does the source give for Cc1ccc2nc(SCc3nc4ccccc4[nH]3)[nH]c2c1 here?
A: The displacement was -46.4%.

Q: O=C(CCc1ccccc1)Nc1ccc(OCc2ccccc2)cc1 was tested. Which displacement did it give?
A: Its displacement is -5.3%.

Q: Which displacement does the source give for Oc1ccccc1-c1cc(C(F)(F)F)[nH]n1 here?
A: Its displacement is 17.8%.

Q: How did the displacement turn out when Cc1cccc(CC2S/C(=N\N=C\c3cccc([N+](=O)[O-])c3)NC2=O)c1 (centres undefined) was run?
A: The displacement was 8.5%.

Q: How did the displacement turn out when Cc1cc(C)cc(N=Cc2ccc(N(C)C)cc2)c1 was run?
A: Its displacement is -7.9%.
